Laboratory results from PubChem BioAssay AID1347075 (National Center for Advancing Translational Sciences (NCATS), 2019).
Screen size: about 400,000 compounds; about 5,500 (1.4%) were called active. Another 9% or so got no clear call; they are omitted. Calls come from the whole dose curve; as a rule, active = well fitted cell-killing curve with a large enough effect; inconclusive = small, poorly fitted or top-dose-only effect, or effect the other way; inactive = flat fitted curve, though single readings scatter. Some structures have more than one record in an assay (separate samples or runs), and their calls can disagree. Some entries of the source have several records that differ or are many. They are shown here; other results are not. The source may hold further records. The values listed for one entry are repeated measurements across runs, samples, wells, individuals or studies. Records carry a tag for their origin. A, B and so on number the origins entry by entry.
Potency is the fitted concentration of half-maximal effect.

Assay: qHTS assay for MDR1-selective chemotherapeutics: Primary screen using the parental adenocarcinoma cell KB-3-1; note: nearly all actives have a fitted effect of over 60% in size
Conditions: KB-3-1 viability, CellTiter-Glo ATP luminescence, 72 h; series mostly up to 46.1 µM
Description: A prime difficulty in effectively treating cancer is the development of cellular resistance to multiple structurally unrelated anticancer drugs, a phenomenon known as multidrug resistance (MDR). […] Numerous strategies to overcome P-gp-mediated MDR have been explored, including the design of drugs that evade recognition and efflux, and development of inhibitors to block efflux and restore drug accumulation. […] An alternative approach is to exploit resistance by identifying drugs that target MDR cells over the non-resistant parental cells from which they were selected. […]
Our goal is to identify compounds that selectively kill P-gp-expressing MDR cells. […] This assay will be utilized to conduct a quantitative high-throughput screen (qHTS) in collaboration with the NIH Chemical Genomics Center to identify selective agents, and probe hits arising from the screen will be validated using secondary assays and characterized through a well-established follow-up research program. […]
Briefly, 5 microL of media containing either KB-3-1 cells (columns 1-2, 4-48) are dispensed into Greiner white, treated solid-bottom 1536-well assay plates (media-only control is added to column 3). […] CellTiter-Glo (2.5 µL/well) is then added, and the plates are read in a ViewLux reader (Perkin-Elmer, clear luminescence filter, 1 second exposure, 1x binning) following a 10 minute incubation. […]
In the case of `O=C(Cn1c[n+](CC(=O)c2ccc([N+](=O)[O-])cc2)cn1)c1ccc([N+](=O)[O-])cc1`, the Potency is reported as “inactive [sample A] and active: 11.6 µM [sample B]”. With `O=C(C[C@H]1C(=O)N(c2ccc(F)c(F)c2)C[C@@H]1Cc1ccccc1)Nc1ccccc1` the Potency was “inactive [sample A] and active: 20.6 µM [sample B]”.
